For 5 molecules, binding results are on record in paper PMC5566548.

Amino acid sequences for entries named in this document (tags omitted).
UniProt Q8IZ08: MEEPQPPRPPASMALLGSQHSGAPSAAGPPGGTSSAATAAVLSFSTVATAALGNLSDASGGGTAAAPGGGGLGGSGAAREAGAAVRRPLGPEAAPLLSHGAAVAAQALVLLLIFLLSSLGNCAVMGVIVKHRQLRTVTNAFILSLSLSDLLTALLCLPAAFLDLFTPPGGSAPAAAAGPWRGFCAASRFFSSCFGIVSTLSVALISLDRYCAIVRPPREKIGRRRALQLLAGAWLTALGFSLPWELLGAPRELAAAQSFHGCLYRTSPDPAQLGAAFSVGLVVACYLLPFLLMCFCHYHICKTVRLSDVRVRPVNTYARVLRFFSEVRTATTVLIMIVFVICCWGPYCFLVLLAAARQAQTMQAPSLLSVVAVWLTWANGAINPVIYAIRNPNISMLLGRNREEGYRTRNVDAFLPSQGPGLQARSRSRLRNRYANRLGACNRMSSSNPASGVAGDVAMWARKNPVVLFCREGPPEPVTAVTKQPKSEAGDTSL
UniProt Q9BZJ7: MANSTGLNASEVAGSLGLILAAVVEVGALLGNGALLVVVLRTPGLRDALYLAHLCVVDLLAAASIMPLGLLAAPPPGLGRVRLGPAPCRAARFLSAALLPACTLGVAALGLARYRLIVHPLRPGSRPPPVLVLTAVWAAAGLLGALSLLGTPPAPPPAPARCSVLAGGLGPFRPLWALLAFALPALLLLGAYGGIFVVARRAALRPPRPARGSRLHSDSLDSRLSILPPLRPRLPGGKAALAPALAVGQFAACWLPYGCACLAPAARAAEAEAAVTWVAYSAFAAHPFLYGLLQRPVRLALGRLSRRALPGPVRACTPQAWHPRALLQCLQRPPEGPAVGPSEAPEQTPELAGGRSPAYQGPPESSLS
UniProt Q9BZJ8: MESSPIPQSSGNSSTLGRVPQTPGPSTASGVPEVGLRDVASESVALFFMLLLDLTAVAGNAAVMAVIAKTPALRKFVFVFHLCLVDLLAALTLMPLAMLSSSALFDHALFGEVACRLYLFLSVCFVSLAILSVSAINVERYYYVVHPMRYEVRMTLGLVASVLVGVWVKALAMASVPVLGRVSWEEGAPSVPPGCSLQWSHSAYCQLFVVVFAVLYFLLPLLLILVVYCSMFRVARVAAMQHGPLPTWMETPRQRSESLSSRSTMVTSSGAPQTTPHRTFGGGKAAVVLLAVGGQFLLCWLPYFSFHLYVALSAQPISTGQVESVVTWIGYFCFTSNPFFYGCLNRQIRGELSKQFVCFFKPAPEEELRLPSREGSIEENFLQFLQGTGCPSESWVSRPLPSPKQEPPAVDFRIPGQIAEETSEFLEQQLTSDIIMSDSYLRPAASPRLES
UniProt P48039: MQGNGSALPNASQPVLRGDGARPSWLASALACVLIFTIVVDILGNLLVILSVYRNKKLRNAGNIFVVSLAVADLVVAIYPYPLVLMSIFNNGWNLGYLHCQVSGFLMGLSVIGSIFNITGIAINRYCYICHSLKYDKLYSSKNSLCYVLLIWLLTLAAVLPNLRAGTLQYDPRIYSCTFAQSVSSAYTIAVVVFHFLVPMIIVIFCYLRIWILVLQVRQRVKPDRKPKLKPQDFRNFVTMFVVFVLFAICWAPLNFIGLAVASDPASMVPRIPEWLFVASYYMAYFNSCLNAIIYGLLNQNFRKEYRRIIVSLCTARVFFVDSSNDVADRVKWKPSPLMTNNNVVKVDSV
UniProt P51681: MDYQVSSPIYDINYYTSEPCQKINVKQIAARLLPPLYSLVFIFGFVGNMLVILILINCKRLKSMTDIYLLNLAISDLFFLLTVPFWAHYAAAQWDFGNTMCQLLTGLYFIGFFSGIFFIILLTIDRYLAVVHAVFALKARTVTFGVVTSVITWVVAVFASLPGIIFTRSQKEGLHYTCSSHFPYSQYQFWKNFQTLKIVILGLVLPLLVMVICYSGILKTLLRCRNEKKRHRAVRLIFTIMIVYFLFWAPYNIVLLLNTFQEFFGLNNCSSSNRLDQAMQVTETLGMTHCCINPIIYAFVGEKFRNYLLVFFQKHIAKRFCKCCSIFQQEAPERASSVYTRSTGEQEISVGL
UniProt P49407: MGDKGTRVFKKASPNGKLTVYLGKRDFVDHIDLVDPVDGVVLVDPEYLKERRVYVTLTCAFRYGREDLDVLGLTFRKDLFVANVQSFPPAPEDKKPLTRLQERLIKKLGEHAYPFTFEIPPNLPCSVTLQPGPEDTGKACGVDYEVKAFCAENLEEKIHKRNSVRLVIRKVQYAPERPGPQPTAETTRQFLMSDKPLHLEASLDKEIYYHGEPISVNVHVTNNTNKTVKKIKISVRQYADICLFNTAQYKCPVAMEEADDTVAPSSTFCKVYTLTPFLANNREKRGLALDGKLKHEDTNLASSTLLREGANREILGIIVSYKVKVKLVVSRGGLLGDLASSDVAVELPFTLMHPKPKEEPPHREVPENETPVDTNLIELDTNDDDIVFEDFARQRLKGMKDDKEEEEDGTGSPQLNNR
UniProt P32121: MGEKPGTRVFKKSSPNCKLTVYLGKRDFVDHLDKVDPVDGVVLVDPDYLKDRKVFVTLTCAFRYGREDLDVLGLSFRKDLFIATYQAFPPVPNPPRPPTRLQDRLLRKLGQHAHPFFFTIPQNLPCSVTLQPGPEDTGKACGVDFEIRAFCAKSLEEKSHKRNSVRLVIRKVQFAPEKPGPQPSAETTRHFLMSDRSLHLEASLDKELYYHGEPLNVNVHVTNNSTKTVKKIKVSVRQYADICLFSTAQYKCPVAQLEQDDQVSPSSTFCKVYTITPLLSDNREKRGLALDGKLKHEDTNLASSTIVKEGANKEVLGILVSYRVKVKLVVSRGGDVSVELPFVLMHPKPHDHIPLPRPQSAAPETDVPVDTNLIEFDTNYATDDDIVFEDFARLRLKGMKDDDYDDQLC

In assay [1] the target is GPR135-Rluc (human) (UniProt Q8IZ08). Kind of assay: FRET or BRET; BRET donor saturation curves in living HEK293T cells: constant amounts of GPR-Rluc (donor; 3 ng GPR61-Rluc, 0.8 ng GPR62-Rluc, 0.2–0.4 ng GPR135-Rluc) and 5–400 ng of YFP plasmids (acceptor); curves normalized to BRETmax. Background: BRET reads energy transfer from a luciferase to a nearby fluorophore.
Assay [2] concerns the target GPR62-Rluc (human) (UniProt Q9BZJ7). Described as above.
In assay [3] the target is GPR61-Rluc (human) (UniProt Q9BZJ8). Described as above.
The target in assay [4] is 6myc-GPR62-PK2 (human) (UniProt Q9BZJ7). Put plainly: split reporter; PathHunter enzyme complementation (DiscoverX) in HEK293 cells stably expressing ß-arrestin2-EA or ß-arrestin1-EA, transfected with different quantities of receptor-PK2 vectors; with or without 1 µM melatonin for 2–3 hours at 37 °C; luminescence.
The target of assay [5] is 6myc-GPR135-PK2 (human) (UniProt Q8IZ08). Described as above.
In assay [6] the target is 6myc-GPR61-PK2 (human) (UniProt Q9BZJ8). The description is as above.
For assay [7], the target named is Flag-MT1-PK2 (human) (UniProt P48039). The description is as above.
Assay [8] shares this target. Kind of assay: split reporter; PathHunter in HEK-arrestin-EA cells expressing Flag-MT1-PK2, HA-MT2-PK2 or myc-MT2-MT1-Ctail-PK2 alone or with GPR61-YFP, GPR62-YFP or GPR135-YFP; melatonin 1 µM; results as % of the melatonin response of the receptor alone.
Assay [9] has as its target T1, HA-MT2-PK2 (UniProt P49286).
T1 sequence: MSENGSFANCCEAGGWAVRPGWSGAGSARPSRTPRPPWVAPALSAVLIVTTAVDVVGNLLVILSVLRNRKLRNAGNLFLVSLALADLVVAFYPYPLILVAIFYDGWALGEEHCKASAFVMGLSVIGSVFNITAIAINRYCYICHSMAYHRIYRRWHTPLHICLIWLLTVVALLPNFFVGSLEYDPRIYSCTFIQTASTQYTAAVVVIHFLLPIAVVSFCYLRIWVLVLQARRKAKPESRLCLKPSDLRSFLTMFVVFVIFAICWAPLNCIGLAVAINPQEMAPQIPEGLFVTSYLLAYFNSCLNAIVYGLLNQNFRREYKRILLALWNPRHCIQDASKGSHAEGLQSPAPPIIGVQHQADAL
The description is as above.

For assay [10], the target named is Flag-MT1-PK2 (human) (UniProt P48039). Put plainly: split reporter; PathHunter in HEK-arrestin-EA cells expressing MT1-PK2 or MT2-PK2, absence or presence of the three orphan receptors; treated with the melatonin receptor antagonist S20928.
Assay [11] deals with T1, HA-MT2-PK2. The description is as above.
The target of assay [12] is 6myc-GPR62-PK2 (human) (UniProt Q9BZJ7). Put plainly: split reporter; PathHunter ß-arrestin2 competition assay: HEK-arrestin-EA cells transfected with 500 ng of GPR-PK2 vectors with or without an additional 500 ng of ß-arrestin2-YFP vector.
Assay [13] deals with 6myc-GPR135-PK2 (human) (UniProt Q8IZ08). The assay is described as above.
Assay [14] addresses 6myc-GPR61-PK2 (human) (UniProt Q9BZJ8). The description is as above.
Assay [15] deals with HA-GPR135 (human) (UniProt Q8IZ08). Put plainly: co-IP; lysates of HEK293T cells co-expressing MT2-YFP and HA-GPR; IP with anti-HA (3F10) and Protein G, 4 °C, 50 mM Tris-HCl pH 7.5, 150 mM NaCl, 10 mM EGTA, 1 mM DTT, 1% Triton-X 100; blot with anti-GFP.
The target of assay [16] is HA-GPR61 (human) (UniProt Q9BZJ8). The assay is described as above.
Assay [17] concerns the target HA-GPR62 (human) (UniProt Q9BZJ7). Described as above.

These are yes or no findings as the source states them, for the method shown. Binding seen in cells or lysates may run through a third protein. Some results given as binding are weak or reduced against the parent protein; the word gives no strength. For some assays here: Tags and fused reporters may be left off the sequences shown.

For the molecule “CCR5-YFP (from UniProt P51681 1-352) (receptor)”, the binding entry in [1], in assay [2] and in assay [3] was “no binding” throughout.

As for “ß-arrestin1-EA (from UniProt P49407 1-418)”, the binding result in [4], in assay [5] and in assay [6] was “binds” each time.

With “ß-arrestin2-EA fusion protein (from UniProt P32121 1-409)”, the binding entry in assay [4], in assay [7], in assay [5], in assay [6], in assay [8] and in assay [9] was “binds” in each case. The binding entry in assay [10] is recorded as “no binding (condition: with the antagonist S20928)”; in [11], “no binding (condition: with the antagonist S20928)”; in [12] it was “binds”; in assay [13] it was “binds”; in assay [14], “binds”.

For the molecule “ß-arrestin2-YFP (from UniProt P32121 1-409)”, the binding result in [12], in [13] and in assay [14] was “binds” throughout.

B1: MT2-YFP (receptor, UniProt P49286 1-362)
chain: T1 sequence
Turning to B1, the binding entry in assay [1], in assay [2], in assay [3], in assay [15], in assay [16] and in assay [17] was “binds” each time.
